Test results from paper PMC8986528.
No constants are given. Whether binding was seen depends on the method and setting. For part of these data: Binding seen in cells or lysates may run through a third protein. Some results given as binding are weak or reduced against the parent protein; the word gives no strength. For part of these data: Tags and fused reporters may be left off the sequences shown.

The chains behind the UniProt entries cited, without tags or fusion partners.
UniProt Q8IZL8: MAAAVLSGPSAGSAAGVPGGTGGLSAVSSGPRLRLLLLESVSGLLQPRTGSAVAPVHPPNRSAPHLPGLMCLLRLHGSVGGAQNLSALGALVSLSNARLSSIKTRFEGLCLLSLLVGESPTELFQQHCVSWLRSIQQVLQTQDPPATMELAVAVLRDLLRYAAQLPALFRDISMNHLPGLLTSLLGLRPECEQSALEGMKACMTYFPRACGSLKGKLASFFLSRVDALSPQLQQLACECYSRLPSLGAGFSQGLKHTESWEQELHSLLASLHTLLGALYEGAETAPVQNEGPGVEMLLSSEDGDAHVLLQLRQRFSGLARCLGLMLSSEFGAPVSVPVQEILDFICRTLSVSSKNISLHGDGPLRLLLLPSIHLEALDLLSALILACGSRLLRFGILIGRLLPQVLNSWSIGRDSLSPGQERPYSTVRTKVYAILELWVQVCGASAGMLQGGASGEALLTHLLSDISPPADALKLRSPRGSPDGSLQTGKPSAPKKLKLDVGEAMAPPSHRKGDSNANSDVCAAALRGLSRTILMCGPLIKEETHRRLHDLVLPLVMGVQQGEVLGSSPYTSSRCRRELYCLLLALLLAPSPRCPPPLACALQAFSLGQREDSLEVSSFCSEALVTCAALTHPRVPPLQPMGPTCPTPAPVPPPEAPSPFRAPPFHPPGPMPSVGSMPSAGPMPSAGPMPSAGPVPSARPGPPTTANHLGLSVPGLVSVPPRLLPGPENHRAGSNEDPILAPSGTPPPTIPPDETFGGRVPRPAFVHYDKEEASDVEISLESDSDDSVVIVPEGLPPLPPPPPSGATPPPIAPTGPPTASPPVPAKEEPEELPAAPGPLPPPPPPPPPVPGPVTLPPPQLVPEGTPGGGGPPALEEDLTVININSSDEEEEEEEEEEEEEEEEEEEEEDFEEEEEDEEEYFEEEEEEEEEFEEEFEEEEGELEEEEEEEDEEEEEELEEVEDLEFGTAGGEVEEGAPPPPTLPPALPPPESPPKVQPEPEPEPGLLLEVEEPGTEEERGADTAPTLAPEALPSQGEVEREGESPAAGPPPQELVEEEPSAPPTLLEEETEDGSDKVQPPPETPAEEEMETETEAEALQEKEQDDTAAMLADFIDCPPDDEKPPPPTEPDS
UniProt Q9H4L4: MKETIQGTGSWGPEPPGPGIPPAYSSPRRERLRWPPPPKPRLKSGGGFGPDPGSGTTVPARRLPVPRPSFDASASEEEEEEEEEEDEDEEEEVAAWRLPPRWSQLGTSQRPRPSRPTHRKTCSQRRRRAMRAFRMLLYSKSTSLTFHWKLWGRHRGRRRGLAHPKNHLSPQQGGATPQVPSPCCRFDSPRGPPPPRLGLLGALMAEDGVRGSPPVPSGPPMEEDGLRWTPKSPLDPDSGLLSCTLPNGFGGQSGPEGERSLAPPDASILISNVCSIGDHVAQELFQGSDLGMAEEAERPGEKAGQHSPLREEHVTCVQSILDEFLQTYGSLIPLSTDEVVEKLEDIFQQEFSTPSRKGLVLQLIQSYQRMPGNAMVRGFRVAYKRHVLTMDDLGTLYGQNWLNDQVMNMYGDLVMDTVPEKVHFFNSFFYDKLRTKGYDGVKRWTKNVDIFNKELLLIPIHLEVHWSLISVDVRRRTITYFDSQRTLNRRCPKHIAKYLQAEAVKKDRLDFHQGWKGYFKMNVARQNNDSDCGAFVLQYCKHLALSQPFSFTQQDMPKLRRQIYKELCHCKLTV
UniProt O95931: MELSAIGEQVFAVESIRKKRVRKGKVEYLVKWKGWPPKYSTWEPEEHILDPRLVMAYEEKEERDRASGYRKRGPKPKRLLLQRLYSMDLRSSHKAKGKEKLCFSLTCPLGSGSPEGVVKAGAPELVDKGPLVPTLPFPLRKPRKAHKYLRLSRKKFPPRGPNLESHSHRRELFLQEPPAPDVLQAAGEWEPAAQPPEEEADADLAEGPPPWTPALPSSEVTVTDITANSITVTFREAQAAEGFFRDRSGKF
UniProt O75530: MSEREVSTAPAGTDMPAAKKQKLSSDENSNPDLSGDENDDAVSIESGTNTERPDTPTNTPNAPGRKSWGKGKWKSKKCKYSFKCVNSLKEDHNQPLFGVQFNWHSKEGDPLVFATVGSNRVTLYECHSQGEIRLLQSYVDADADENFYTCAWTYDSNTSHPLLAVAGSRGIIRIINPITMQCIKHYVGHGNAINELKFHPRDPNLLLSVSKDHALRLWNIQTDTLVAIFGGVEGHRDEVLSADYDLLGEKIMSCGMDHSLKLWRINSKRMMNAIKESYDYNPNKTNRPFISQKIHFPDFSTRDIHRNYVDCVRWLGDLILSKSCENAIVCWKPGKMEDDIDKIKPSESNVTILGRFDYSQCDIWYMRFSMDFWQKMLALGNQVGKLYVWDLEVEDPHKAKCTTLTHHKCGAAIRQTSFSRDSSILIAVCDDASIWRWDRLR
UniProt Q99496: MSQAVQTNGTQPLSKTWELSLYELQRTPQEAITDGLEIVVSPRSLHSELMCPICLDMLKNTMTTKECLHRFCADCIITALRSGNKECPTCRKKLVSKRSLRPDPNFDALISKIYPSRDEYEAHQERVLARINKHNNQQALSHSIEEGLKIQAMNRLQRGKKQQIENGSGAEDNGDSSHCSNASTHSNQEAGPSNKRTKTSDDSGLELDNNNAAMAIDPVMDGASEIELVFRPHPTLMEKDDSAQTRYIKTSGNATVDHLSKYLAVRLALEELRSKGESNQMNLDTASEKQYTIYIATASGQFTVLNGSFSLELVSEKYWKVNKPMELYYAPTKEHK

Experiments:
[1] = target: T1, PCGF3 (yeast two-hybrid fusion) (human) (UniProt Q3KNV8); assay: two-hybrid; yeast two-hybrid, bait pGBKT7 and prey pGADT7, growth on quadruple dropout medium (SC -Trp, -Leu, -His, -Ade), 30 °C
T1 sequence: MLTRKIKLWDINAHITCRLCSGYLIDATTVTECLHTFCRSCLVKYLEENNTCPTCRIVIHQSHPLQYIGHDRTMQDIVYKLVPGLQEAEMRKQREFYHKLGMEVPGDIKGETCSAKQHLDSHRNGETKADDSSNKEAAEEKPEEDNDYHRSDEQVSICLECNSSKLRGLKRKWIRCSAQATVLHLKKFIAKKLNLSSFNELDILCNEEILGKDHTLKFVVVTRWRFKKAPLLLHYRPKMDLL

[2] = target: T2, 3×Flag–NOL9 (human (endogenous in HEK 293FT)) (UniProt Q5SY16); assay: co-IP; immunoprecipitation from the DNase I-digested chromatin fraction of HEK 293FT cells (IP buffer 250 mM NaCl, 1% Triton X-100), Dynabeads Protein A/G, immunoblot; Fig. 1f, g with or without 500 U/ml benzonase
T2 sequence: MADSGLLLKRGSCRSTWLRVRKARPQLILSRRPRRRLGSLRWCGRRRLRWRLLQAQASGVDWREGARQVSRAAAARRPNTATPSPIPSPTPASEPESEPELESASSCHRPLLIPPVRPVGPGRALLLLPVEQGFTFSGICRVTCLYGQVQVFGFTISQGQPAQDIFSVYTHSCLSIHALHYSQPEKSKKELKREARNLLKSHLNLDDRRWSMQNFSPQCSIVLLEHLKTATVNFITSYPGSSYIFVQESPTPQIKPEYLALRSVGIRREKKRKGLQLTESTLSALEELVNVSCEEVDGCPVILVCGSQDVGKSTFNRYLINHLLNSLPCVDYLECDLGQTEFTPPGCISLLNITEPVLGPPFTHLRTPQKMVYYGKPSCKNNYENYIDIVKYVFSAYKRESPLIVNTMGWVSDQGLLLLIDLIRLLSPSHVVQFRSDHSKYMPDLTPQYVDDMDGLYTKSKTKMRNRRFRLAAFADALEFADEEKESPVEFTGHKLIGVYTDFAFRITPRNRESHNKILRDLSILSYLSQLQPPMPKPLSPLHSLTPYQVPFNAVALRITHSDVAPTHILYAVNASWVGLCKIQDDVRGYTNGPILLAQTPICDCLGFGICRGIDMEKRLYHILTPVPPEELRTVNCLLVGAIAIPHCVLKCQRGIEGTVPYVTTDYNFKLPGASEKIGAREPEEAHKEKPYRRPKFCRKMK

[3] = target: T3, 3×Flag–WDR18 (human (endogenous in HEK 293FT)) (UniProt Q9BV38); assay: as above
T3 sequence: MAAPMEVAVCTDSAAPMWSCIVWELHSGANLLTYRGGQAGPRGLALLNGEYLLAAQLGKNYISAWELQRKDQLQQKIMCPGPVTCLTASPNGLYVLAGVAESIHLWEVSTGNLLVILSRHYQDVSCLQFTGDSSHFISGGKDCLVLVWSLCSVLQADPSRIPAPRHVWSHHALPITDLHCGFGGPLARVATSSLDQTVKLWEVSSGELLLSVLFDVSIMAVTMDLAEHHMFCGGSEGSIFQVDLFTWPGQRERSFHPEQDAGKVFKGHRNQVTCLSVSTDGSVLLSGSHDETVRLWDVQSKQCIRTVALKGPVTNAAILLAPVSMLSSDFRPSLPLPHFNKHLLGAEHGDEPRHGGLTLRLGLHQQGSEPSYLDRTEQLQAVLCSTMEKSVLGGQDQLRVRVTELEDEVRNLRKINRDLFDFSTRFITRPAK

[4] = target: PELP1 (human (endogenous in HEK 293FT)) (UniProt Q8IZL8); assay: as above
[5] = target: SENP3 (human (endogenous in HEK 293FT)) (UniProt Q9H4L4); assay: as above
[6] = target: T4, TEX10 (human (endogenous in HEK 293FT)) (UniProt Q9NXF1); assay: as above
T4 sequence: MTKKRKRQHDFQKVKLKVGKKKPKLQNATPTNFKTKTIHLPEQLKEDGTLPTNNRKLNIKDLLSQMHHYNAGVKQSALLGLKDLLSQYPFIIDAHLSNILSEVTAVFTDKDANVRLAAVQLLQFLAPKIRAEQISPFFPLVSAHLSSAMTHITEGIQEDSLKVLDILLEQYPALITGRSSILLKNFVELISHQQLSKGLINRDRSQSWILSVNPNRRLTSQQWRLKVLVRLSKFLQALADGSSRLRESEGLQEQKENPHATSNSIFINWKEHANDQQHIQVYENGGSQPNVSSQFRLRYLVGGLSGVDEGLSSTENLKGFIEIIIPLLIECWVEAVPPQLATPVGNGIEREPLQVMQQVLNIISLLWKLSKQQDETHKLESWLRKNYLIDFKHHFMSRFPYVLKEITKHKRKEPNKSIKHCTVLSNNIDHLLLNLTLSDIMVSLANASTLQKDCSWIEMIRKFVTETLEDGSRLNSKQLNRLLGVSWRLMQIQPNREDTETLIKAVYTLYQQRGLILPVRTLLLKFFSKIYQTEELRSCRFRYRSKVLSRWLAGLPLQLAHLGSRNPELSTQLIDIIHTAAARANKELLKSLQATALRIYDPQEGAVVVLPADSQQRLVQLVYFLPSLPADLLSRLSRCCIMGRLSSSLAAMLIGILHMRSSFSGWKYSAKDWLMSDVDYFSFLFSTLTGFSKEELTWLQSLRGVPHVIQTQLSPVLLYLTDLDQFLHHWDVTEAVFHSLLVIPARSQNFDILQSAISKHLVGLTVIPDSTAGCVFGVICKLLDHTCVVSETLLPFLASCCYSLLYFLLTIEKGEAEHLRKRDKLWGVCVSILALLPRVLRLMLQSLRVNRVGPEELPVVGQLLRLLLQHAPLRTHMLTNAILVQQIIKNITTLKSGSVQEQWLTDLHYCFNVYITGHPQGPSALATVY

[7] = target: T2, 3×Flag–NOL9 (human (endogenous in HEK 293FT)); assay: co-sedimentation; Flag–NOL9-associated and PHC2–Flag-associated proteins purified from the soluble chromatin fraction of cells with wild-type RING1B, eluted with 3×Flag peptide, 10–30% sucrose gradient, 16 h at 4 °C, fractions immunoblotted
[8] = target: CBX7 (yeast two-hybrid fusion) (human) (UniProt O95931); assay: two-hybrid; yeast two-hybrid, bait pGBKT7 and prey pGADT7, growth on quadruple dropout medium (SC -Trp, -Leu, -His, -Ade), 30 °C
[9] = target: T5, CBX8 (yeast two-hybrid fusion) (human) (UniProt Q9HC52); assay: as above
T5 sequence: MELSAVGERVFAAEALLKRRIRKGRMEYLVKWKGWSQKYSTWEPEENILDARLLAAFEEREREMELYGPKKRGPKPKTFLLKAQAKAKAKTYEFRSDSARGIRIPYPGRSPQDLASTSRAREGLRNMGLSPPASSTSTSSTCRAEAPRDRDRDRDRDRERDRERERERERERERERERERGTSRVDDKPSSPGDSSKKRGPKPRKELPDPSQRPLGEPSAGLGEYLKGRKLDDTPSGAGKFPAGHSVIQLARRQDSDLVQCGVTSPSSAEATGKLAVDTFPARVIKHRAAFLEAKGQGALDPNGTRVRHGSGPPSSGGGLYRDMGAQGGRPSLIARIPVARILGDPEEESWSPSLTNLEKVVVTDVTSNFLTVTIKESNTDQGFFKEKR

[10] = target: EED (yeast two-hybrid fusion) (human) (UniProt O75530); assay: as above
[11] = target: RING1B (yeast two-hybrid fusion) (human) (UniProt Q99496); assay: as above
[12] = target: full-length GST–RING1B (human) (UniProt Q99496); assay: pull-down; GST or GST-tagged RING1B proteins (0.1 μM) on Glutathione Sepharose 4B with untagged TEX10 (0.1 μM) in PBS pH 7.4 with 0.5% Triton 100, overnight at 4 °C; TEX10 detected by immunoblot; both purified

Measured: binding

PELP1 (yeast two-hybrid fusion) (from UniProt Q8IZL8 1-1130)
binds: [1]

RING1B (from UniProt Q99496 1-336)
binds: [2] | [3] | [4] | [5] | [6] | [7]

B1: TEX10 (yeast two-hybrid fusion) (protein, UniProt Q9NXF1 1-929)
chain: MTKKRKRQHDFQKVKLKVGKKKPKLQNATPTNFKTKTIHLPEQLKEDGTLPTNNRKLNIKDLLSQMHHYNAGVKQSALLGLKDLLSQYPFIIDAHLSNILSEVTAVFTDKDANVRLAAVQLLQFLAPKIRAEQISPFFPLVSAHLSSAMTHITEGIQEDSLKVLDILLEQYPALITGRSSILLKNFVELISHQQLSKGLINRDRSQSWILSVNPNRRLTSQQWRLKVLVRLSKFLQALADGSSRLRESEGLQEQKENPHATSNSIFINWKEHANDQQHIQVYENGGSQPNVSSQFRLRYLVGGLSGVDEGLSSTENLKGFIEIIIPLLIECWVEAVPPQLATPVGNGIEREPLQVMQQVLNIISLLWKLSKQQDETHKLESWLRKNYLIDFKHHFMSRFPYVLKEITKHKRKEPNKSIKHCTVLSNNIDHLLLNLTLSDIMVSLANASTLQKDCSWIEMIRKFVTETLEDGSRLNSKQLNRLLGVSWRLMQIQPNREDTETLIKAVYTLYQQRGLILPVRTLLLKFFSKIYQTEELRSCRFRYRSKVLSRWLAGLPLQLAHLGSRNPELSTQLIDIIHTAAARANKELLKSLQATALRIYDPQEGAVVVLPADSQQRLVQLVYFLPSLPADLLSRLSRCCIMGRLSSSLAAMLIGILHMRSSFSGWKYSAKDWLMSDVDYFSFLFSTLTGFSKEELTWLQSLRGVPHVIQTQLSPVLLYLTDLDQFLHHWDVTEAVFHSLLVIPARSQNFDILQSAISKHLVGLTVIPDSTAGCVFGVICKLLDHTCVVSETLLPFLASCCYSLLYFLLTIEKGEAEHLRKRDKLWGVCVSILALLPRVLRLMLQSLRVNRVGPEELPVVGQLLRLLLQHAPLRTHMLTNAILVQQIIKNITTLKSGSVQEQWLTDLHYCFNVYITGHPQGPSALATVY
binds: [8] | [9] | [10] | [11]

B2: TEX10 (bacterially expressed and purified) (protein, UniProt Q9NXF1 1-929)
chain: MTKKRKRQHDFQKVKLKVGKKKPKLQNATPTNFKTKTIHLPEQLKEDGTLPTNNRKLNIKDLLSQMHHYNAGVKQSALLGLKDLLSQYPFIIDAHLSNILSEVTAVFTDKDANVRLAAVQLLQFLAPKIRAEQISPFFPLVSAHLSSAMTHITEGIQEDSLKVLDILLEQYPALITGRSSILLKNFVELISHQQLSKGLINRDRSQSWILSVNPNRRLTSQQWRLKVLVRLSKFLQALADGSSRLRESEGLQEQKENPHATSNSIFINWKEHANDQQHIQVYENGGSQPNVSSQFRLRYLVGGLSGVDEGLSSTENLKGFIEIIIPLLIECWVEAVPPQLATPVGNGIEREPLQVMQQVLNIISLLWKLSKQQDETHKLESWLRKNYLIDFKHHFMSRFPYVLKEITKHKRKEPNKSIKHCTVLSNNIDHLLLNLTLSDIMVSLANASTLQKDCSWIEMIRKFVTETLEDGSRLNSKQLNRLLGVSWRLMQIQPNREDTETLIKAVYTLYQQRGLILPVRTLLLKFFSKIYQTEELRSCRFRYRSKVLSRWLAGLPLQLAHLGSRNPELSTQLIDIIHTAAARANKELLKSLQATALRIYDPQEGAVVVLPADSQQRLVQLVYFLPSLPADLLSRLSRCCIMGRLSSSLAAMLIGILHMRSSFSGWKYSAKDWLMSDVDYFSFLFSTLTGFSKEELTWLQSLRGVPHVIQTQLSPVLLYLTDLDQFLHHWDVTEAVFHSLLVIPARSQNFDILQSAISKHLVGLTVIPDSTAGCVFGVICKLLDHTCVVSETLLPFLASCCYSLLYFLLTIEKGEAEHLRKRDKLWGVCVSILALLPRVLRLMLQSLRVNRVGPEELPVVGQLLRLLLQHAPLRTHMLTNAILVQQIIKNITTLKSGSVQEQWLTDLHYCFNVYITGHPQGPSALATVY
binds: [12]
